This is one part of the list. The full chains were built here from the parent and the listed change. Inactive controls read about 0.05.
B1: TEV protease; numbered along this chain (parent)
chain: MGESLFKGPRDYNPISSSICHLTNESDGHTTSLYGIGFGPFIITNKHLFRRNNGTLVVQSLHGVFKVKDTTTLQQHLVDGRDMIIIRMPKDFPPFPQKLKFREPQREERICLVTTNFQTKSMSSMVSDTSCTFPSGDGIFWKHWIQTKDGQCGSPLVSTRDGFIVGIHSASNFTNTNNYFTSVPKNFMELLTNQEAQQWVSGWRLNADSVLWGGHKVFMVKPEEPFQPVKEATQL
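Also: Bxb1 expression induced with 0.2% (w/v) L-rhamnose at OD600 near 0.5, cultures sampled hourly, flipped fraction per protease–substrate barcode pair counted by paired-end Illumina sequencing.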

Variants of: B1
Assay: raw area under fraction-flipped curve 0-4 h after induction (AUC4h, not background-subtracted), DNA-recorder readout of cleavage of the substrate (dimensionless); higher = more cleavage of the substrate by the protease variant
Details: temperature: 34 °C; time window: 0-4 h after rhamnose induction
In the case of E223P, the “area with substrate ENLYEQS” value is reported as 0.0645, the “area with substrate ENLYGQS” value is reported as 0.0686 and the “area with substrate ENLYIQS” value is reported as 0.129. For the same variant, the “area with substrate ENLYKQS” value was 0.0579, the “area with substrate ENLYMQS” value was 0.0312 and the “area with substrate ENLYNQS” value was 0.0651. The “area with substrate ENLYQQS” value was 0.0671, the “area with substrate ENLYTQS” value was 0.0767 and the “area with substrate ENLYVQS” value was 0.11. The “area with substrate ENLYWQS” value was 0.066 and the “area with substrate ENLYYQS” value was 0.0791. In the case of V165H, the “area with substrate ENLYHQS” value is reported as 0.046, the “area with substrate ENLYPQS” value is reported as 0.0549 and the “area with substrate ENLYSQS” value is reported as 0.064. The “area with substrate ENLYWQS” value was 0.0545. For Q97V, the “area with substrate ENLYPQS” value was 0.066. With S154E the “area with substrate ENLYGQS” value was 0.0613, the “area with substrate ENLYHQS” value was 0.0551 and the “area with substrate ENLYQQS” value was 0.0745. The “area with substrate ENLYSQS” value was 0.0733 and the “area with substrate ENLYWQS” value was 0.0633. For V210A, the “area with substrate ENLYEQS” value was 0.0739, the “area with substrate ENLYKQS” value was 0.0454 and the “area with substrate ENLYNQS” value was 0.0703. For the same variant, the “area with substrate ENLYWQS” value was 0.0669. For K230R, the “area with substrate ENLYEQS” value was 0.0746, the “area with substrate ENLYHQS” value was 0.0643 and the “area with substrate ENLYKQS” value was 0.0517. The “area with substrate ENLYMQS” value was 0.0931, the “area with substrate ENLYNQS” value was 0.0942 and the “area with substrate ENLYRQS” value was 0.0603. For the same variant, the “area with substrate ENLYVQS” value was 0.117. With F218C the “area with substrate ENLYEQS” value was 0.0696, the “area with substrate ENLYGQS” value was 0.0572 and the “area with substrate ENLYHQS” value was 0.059. The “area with substrate ENLYIQS” value was 0.094, the “area with substrate ENLYNQS” value was 0.0633 and the “area with substrate ENLYPQS” value was 0.0687. The “area with substrate ENLYRQS” value was 0.0539, the “area with substrate ENLYSQS” value was 0.0595 and the “area with substrate ENLYVQS” value was 0.124. For G138E, the “area with substrate ENLYGQS” value was 0.0836, the “area with substrate ENLYPQS” value was 0.0692 and the “area with substrate ENLYVQS” value was 0.0837. The “area with substrate ENLYYQS” value was 0.052. For C131G, the “area with substrate ENLYIQS” value was 0.092, the “area with substrate ENLYLQS” value was 0.0708 and the “area with substrate ENLYNQS” value was 0.0568. For the same variant, the “area with substrate ENLYQQS” value was 0.0576 and the “area with substrate ENLYVQS” value was 0.0933. With C131L the “area with substrate ENLYKQS” value was 0.0593. In the case of C131A, the “area with substrate ENLYPQS” value is reported as 0.0677, the “area with substrate ENLYVQS” value is reported as 0.153 and the “area with substrate ENLYWQS” value is reported as 0.0874. For L99A, the “area with substrate ENLYGQS” value was 0.0666, the “area with substrate ENLYHQS” value was 0.0709 and the “area with substrate ENLYIQS” value was 0.12. For the same variant, the “area with substrate ENLYKQS” value was 0.0695, the “area with substrate ENLYMQS” value was 0.0847 and the “area with substrate ENLYNQS” value was 0.069. The “area with substrate ENLYPQS” value was 0.0688, the “area with substrate ENLYVQS” value was 0.0764 and the “area with substrate ENLYYQS” value was 0.0651. With Q74N the “area with substrate ENLYGQS” value was 0.0688, the “area with substrate ENLYHQS” value was 0.0628 and the “area with substrate ENLYKQS” value was 0.0706. With Q74T the “area with substrate ENLYGQS” value was 0.0645, the “area with substrate ENLYHQS” value was 0.0667 and the “area with substrate ENLYKQS” value was 0.0603. For the same variant, the “area with substrate ENLYLQS” value was 0.0633 and the “area with substrate ENLYNQS” value was 0.0649. In the case of N193V, the “area with substrate ENLYRQS” value is reported as 0.047 and the “area with substrate ENLYYQS” value is reported as 0.0607. In the case of T71S, the “area with substrate ENLYHQS” value is reported as 0.0677, the “area with substrate ENLYKQS” value is reported as 0.0577 and the “area with substrate ENLYNQS” value is reported as 0.0605. For the same variant, the “area with substrate ENLYSQS” value was 0.0538, the “area with substrate ENLYWQS” value was 0.0686 and the “area with substrate ENLYYQS” value was 0.0518. For Y34P, the “area with substrate ENLYGQS” value was 0.067, the “area with substrate ENLYHQS” value was 0.0582 and the “area with substrate ENLYIQS” value was 0.0369. The “area with substrate ENLYKQS” value was 0.076, the “area with substrate ENLYMQS” value was 0.0578 and the “area with substrate ENLYNQS” value was 0.0548. For the same variant, the “area with substrate ENLYRQS” value was 0.0512, the “area with substrate ENLYSQS” value was 0.0036 and the “area with substrate ENLYVQS” value was 0.0418. For the same variant, the “area with substrate ENLYYQS” value was 0.0577. With P94C the “area with substrate ENLYHQS” value was 0.055, the “area with substrate ENLYMQS” value was 0.0847 and the “area with substrate ENLYVQS” value was 0.121. For the same variant, the “area with substrate ENLYWQS” value was 0.0734 and the “area with substrate ENLYYQS” value was 0.0668. With N178P the “area with substrate ENLYGQS” value was 0.0697, the “area with substrate ENLYHQS” value was 0.0613 and the “area with substrate ENLYMQS” value was 0.0557. For the same variant, the “area with substrate ENLYPQS” value was 0.0602, the “area with substrate ENLYRQS” value was 0.0585 and the “area with substrate ENLYSQS” value was 0.0704. For the same variant, the “area with substrate ENLYTQS” value was 0.0579 and the “area with substrate ENLYWQS” value was 0.0577. For S171W, the “area with substrate ENLYGQS” value was 0.0774, the “area with substrate ENLYKQS” value was 0.0615 and the “area with substrate ENLYNQS” value was 0.0602. The “area with substrate ENLYPQS” value was 0.0644, the “area with substrate ENLYQQS” value was 0.0924 and the “area with substrate ENLYYQS” value was 0.0625. In the case of M188Q, the “area with substrate ENLYGQS” value is reported as 0.0699, the “area with substrate ENLYHQS” value is reported as 0.0732 and the “area with substrate ENLYKQS” value is reported as 0.0412. The “area with substrate ENLYMQS” value was 0.0805, the “area with substrate ENLYPQS” value was 0.0552 and the “area with substrate ENLYRQS” value was 0.0374. The “area with substrate ENLYSQS” value was 0.0906 and the “area with substrate ENLYYQS” value was 0.0606. For I110A, the “area with substrate ENLYGQS” value was 0.0515, the “area with substrate ENLYIQS” value was 0.104 and the “area with substrate ENLYNQS” value was 0.0621. The “area with substrate ENLYRQS” value was 0.055 and the “area with substrate ENLYVQS” value was 0.0956. For E231S, the “area with substrate ENLYGQS” value was 0.0671, the “area with substrate ENLYHQS” value was 0.0722 and the “area with substrate ENLYIQS” value was 0.0796. The “area with substrate ENLYKQS” value was 0.0469, the “area with substrate ENLYLQS” value was 0.0651 and the “area with substrate ENLYMQS” value was 0.1. The “area with substrate ENLYNQS” value was 0.0657, the “area with substrate ENLYPQS” value was 0.0378 and the “area with substrate ENLYSQS” value was 0.0783. For the same variant, the “area with substrate ENLYWQS” value was 0.0509. For F226P, the “area with substrate ENLYEQS” value was 0.0711, the “area with substrate ENLYHQS” value was 0.0516 and the “area with substrate ENLYIQS” value was 0.102. The “area with substrate ENLYLQS” value was 0.0834, the “area with substrate ENLYNQS” value was 0.0623 and the “area with substrate ENLYQQS” value was 0.0544. The “area with substrate ENLYSQS” value was 0.1, the “area with substrate ENLYTQS” value was 0.0793 and the “area with substrate ENLYVQS” value was 0.125. For the same variant, the “area with substrate ENLYWQS” value was 0.074 and the “area with substrate ENLYYQS” value was 0.072. For L73A, the “area with substrate ENLYGQS” value was 0.0603, the “area with substrate ENLYHQS” value was 0.0583 and the “area with substrate ENLYKQS” value was 0.0451. The “area with substrate ENLYMQS” value was 0.0424, the “area with substrate ENLYQQS” value was 0.0862 and the “area with substrate ENLYSQS” value was 0.0599. In the case of F95Q, the “area with substrate ENLYGQS” value is reported as 0.0484 and the “area with substrate ENLYYQS” value is reported as 0.0494. With V157C the “area with substrate ENLYGQS” value was 0.0696, the “area with substrate ENLYHQS” value was 0.0449 and the “area with substrate ENLYIQS” value was 0.114. For the same variant, the “area with substrate ENLYMQS” value was 0.103, the “area with substrate ENLYNQS” value was 0.061 and the “area with substrate ENLYTQS” value was 0.0905. For the same variant, the “area with substrate ENLYVQS” value was 0.109 and the “area with substrate ENLYYQS” value was 0.046. With C111E the “area with substrate ENLYGQS” value was 0.0495, the “area with substrate ENLYHQS” value was 0.0751 and the “area with substrate ENLYIQS” value was 0.105. The “area with substrate ENLYLQS” value was 0.0938, the “area with substrate ENLYQQS” value was 0.0707 and the “area with substrate ENLYWQS” value was 0.0854. For A196C, the “area with substrate ENLYHQS” value was 0.0645 and the “area with substrate ENLYYQS” value was 0.0525. With L205C the “area with substrate ENLYEQS” value was 0.0737, the “area with substrate ENLYKQS” value was 0.0663 and the “area with substrate ENLYMQS” value was 0.0549. The “area with substrate ENLYPQS” value was 0.0618, the “area with substrate ENLYRQS” value was 0.0619 and the “area with substrate ENLYTQS” value was 0.0836. The “area with substrate ENLYVQS” value was 0.0993, the “area with substrate ENLYWQS” value was 0.0443 and the “area with substrate ENLYYQS” value was 0.0641. In the case of W203Q, the “area with substrate ENLYEQS” value is reported as 0.0653, the “area with substrate ENLYGQS” value is reported as 0.0703 and the “area with substrate ENLYHQS” value is reported as 0.0634. The “area with substrate ENLYMQS” value was 0.0621, the “area with substrate ENLYNQS” value was 0.0675 and the “area with substrate ENLYSQS” value was 0.0548. The “area with substrate ENLYTQS” value was 0.0579 and the “area with substrate ENLYWQS” value was 0.0538. For F163G, the “area with substrate ENLYMQS” value was 0.0646. With V58C the “area with substrate ENLYGQS” value was 0.0708, the “area with substrate ENLYHQS” value was 0.0692 and the “area with substrate ENLYKQS” value was 0.0641. For the same variant, the “area with substrate ENLYMQS” value was 0.0723, the “area with substrate ENLYNQS” value was 0.0655 and the “area with substrate ENLYPQS” value was 0.0644. For the same variant, the “area with substrate ENLYRQS” value was 0.0649, the “area with substrate ENLYSQS” value was 0.0749 and the “area with substrate ENLYTQS” value was 0.0726. The “area with substrate ENLYVQS” value was 0.116, the “area with substrate ENLYWQS” value was 0.0733 and the “area with substrate ENLYYQS” value was 0.0794. With D79Y the “area with substrate ENLYHQS” value was 0.0764, the “area with substrate ENLYIQS” value was 0.126 and the “area with substrate ENLYKQS” value was 0.0569. The “area with substrate ENLYLQS” value was 0.0938, the “area with substrate ENLYNQS” value was 0.0599 and the “area with substrate ENLYPQS” value was 0.057. The “area with substrate ENLYVQS” value was 0.0976 and the “area with substrate ENLYWQS” value was 0.0927. With P228I the “area with substrate ENLYKQS” value was 0.0706 and the “area with substrate ENLYNQS” value was 0.0793. With P228T the “area with substrate ENLYHQS” value was 0.0792, the “area with substrate ENLYIQS” value was 0.0821 and the “area with substrate ENLYKQS” value was 0.075. The “area with substrate ENLYLQS” value was 0.0824, the “area with substrate ENLYNQS” value was 0.0777 and the “area with substrate ENLYTQS” value was 0.0865. For the same variant, the “area with substrate ENLYVQS” value was 0.113 and the “area with substrate ENLYYQS” value was 0.0527. In the case of F117T, the “area with substrate ENLYHQS” value is reported as 0.0545, the “area with substrate ENLYIQS” value is reported as 0.157 and the “area with substrate ENLYQQS” value is reported as 0.0555. The “area with substrate ENLYSQS” value was 0.0658, the “area with substrate ENLYVQS” value was 0.122 and the “area with substrate ENLYYQS” value was 0.0701. For T159H, the “area with substrate ENLYHQS” value was 0.0684, the “area with substrate ENLYIQS” value was 0.114 and the “area with substrate ENLYNQS” value was 0.0649. The “area with substrate ENLYPQS” value was 0.0676, the “area with substrate ENLYQQS” value was 0.0612 and the “area with substrate ENLYTQS” value was 0.0933. The “area with substrate ENLYWQS” value was 0.0929.
